Source: article PMC4336329 (PLoS ONE, 2015)
Out of some 310,000 compounds screened, about 2,200 (0.71%) showed an effect of 50% or more. Effects have a minus sign here. The list shows a part of the results.

target: human ether-à-go-go-related gene (hERG) potassium channel (human, UniProt Q12809); experiment: primary screen, population patch clamp on CHO cells stably expressing hERG
Sequence (Q12809 whole entry, looked up): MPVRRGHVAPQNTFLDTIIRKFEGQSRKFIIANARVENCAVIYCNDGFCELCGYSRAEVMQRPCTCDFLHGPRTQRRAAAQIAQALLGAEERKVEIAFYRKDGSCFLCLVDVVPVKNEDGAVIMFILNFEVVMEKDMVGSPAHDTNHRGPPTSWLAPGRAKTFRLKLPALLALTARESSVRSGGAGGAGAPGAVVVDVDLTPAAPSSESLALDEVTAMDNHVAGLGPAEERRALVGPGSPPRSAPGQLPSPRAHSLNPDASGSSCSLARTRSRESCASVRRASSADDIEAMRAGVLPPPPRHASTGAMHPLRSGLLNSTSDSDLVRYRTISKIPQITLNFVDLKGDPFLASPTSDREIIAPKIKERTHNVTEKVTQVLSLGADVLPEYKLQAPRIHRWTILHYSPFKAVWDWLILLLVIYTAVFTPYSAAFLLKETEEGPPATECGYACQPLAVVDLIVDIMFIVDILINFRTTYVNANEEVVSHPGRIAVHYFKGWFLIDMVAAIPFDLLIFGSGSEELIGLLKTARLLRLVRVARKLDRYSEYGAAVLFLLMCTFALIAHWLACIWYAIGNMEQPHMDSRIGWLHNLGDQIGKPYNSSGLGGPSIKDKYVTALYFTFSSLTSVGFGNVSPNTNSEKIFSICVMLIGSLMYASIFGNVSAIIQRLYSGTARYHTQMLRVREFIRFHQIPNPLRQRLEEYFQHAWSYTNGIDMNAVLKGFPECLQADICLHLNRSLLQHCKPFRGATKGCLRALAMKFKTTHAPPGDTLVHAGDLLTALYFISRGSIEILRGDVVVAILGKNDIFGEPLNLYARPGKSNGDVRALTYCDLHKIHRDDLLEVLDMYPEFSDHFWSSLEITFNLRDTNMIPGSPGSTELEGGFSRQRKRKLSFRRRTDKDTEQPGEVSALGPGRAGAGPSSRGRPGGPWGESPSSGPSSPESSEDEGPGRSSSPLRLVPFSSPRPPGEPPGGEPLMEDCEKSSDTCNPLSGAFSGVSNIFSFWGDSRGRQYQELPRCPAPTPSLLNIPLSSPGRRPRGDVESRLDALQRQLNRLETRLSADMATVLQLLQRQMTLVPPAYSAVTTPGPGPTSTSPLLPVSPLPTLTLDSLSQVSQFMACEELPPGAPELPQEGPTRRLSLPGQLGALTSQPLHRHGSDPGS

SMILES | hERG current change (%, negative = inhibition) at 1uM
COCCNC(=O)C(C)Oc1ccc(Cl)cc1Cl (centres unmarked) | 10%
COc1ccc(NCc2nnc(-c3ccccc3)o2)cc1 | 8.71%
CC(C)c1ccc(NNC(=O)C2CCC2)cc1 | 12.4%
N#CC(C(=O)C1CCCCC1)c1nc2ccccc2[nH]1 (centres unmarked) | 5.52%
Cc1c(C)c2ccc(OCC(=O)N3CCN(C(=O)C4COc5ccccc5O4)CC3)cc2oc1=O (centres unmarked) | 1.18%
COc1ccc2cc(-c3cc(C(=O)O)c4ccccc4n3)ccc2c1 | 11.4%
O=C1[C@H]2[C@H](ON3CCCC[C@H]23)C(=O)N1c1cccc(C(F)(F)F)c1 | 14.8%
N=C1C(c2ccccc2)=C(O)CN1CCCO | 7.75%
COc1cccc(CNC(=O)c2csc3c2CCCC3)c1 | 11.5%
N#Cc1c(Cl)cccc1N1CCCC1 | 13.6%
Cc1ccc(CN2CCN(/N=C/c3cc(Br)ccc3F)CC2)cc1 | 16.9%
Cc1nn(C)cc1C(C(=O)NC1CCCCC1)N(Cc1ccccc1Cl)C(=O)c1cnccn1 (centres unmarked) | 6.25%
O=c1c2ccccc2nc(CSc2nnnn2-c2ccccc2)n1-c1cccc(C(F)(F)F)c1 | 15.6%
COc1cccc(NC(=O)CN(C)C(=O)/C=C/c2ccc3ccccc3n2)c1 | 7.44%
CCOC(=O)c1ccc(CN(Cc2ccccc2)S(=O)(=O)c2cccc([N+](=O)[O-])c2)cc1 | 15.2%
C/C(=N/NC(=O)CCc1ccccc1)c1ccc2c(c1)OCO2 | 19.2%
Cc1cccc(N2C(=O)C(O)=C(C(=O)c3cccs3)C2c2ccc(Cl)cc2)n1 (centres unmarked) | 4.89%
CSCCC1NC(=O)N(CC(=O)Nc2cc(C)on2)C1=O (centres unmarked) | 9.03%
COC(=O)CCC(=O)N1CCc2cc(S(=O)(=O)N3CCc4ccccc43)ccc21 | 12.9%
COc1cccc(C(C(=O)NCC2CCCO2)N(CC2CCCO2)C(=O)CN2C(=O)c3ccccc3S2(=O)=O)c1 (centres unmarked) | 12.5%
CCc1ncc(CN2CCCC(C(=O)Nc3cccc(-c4cccc(C)c4)c3)C2)cn1 (centres unmarked) | 7.1%
Nc1cc(=O)nc(SCC(=O)Nc2ccccc2)n1-c1ccccc1 | 15.5%
CCOc1ccc(-c2nn(-c3ccccc3)cc2/C=C(\C#N)S(=O)(=O)c2ccccc2)cc1C | 8.73%

SMILES | hERG current change (%, negative = inhibition) at 1uM
CC(=O)N/C(=C/c1ccc2c(c1)OCO2)C(=O)NCc1ccccc1 | 8.28%
O=C(COC(=O)c1ccc(S(=O)(=O)NCc2ccco2)cc1)c1ccccc1 | -1.51%
Oc1ccccc1N1CCN(c2nnnn2-c2ccccc2)CC1 | 10.2%
CN(C)Cc1c(O)ccc2c3c(c(=O)oc12)CCCCC3 | 10.4%
O=C(Nc1cc2nn(-c3ccccc3)nc2cc1Cl)c1ccco1 | 16.3%
Cc1ccc(NNC(=O)c2snnc2C)cc1Cl | 4.86%
Cc1ccc(C)c(S(=O)(=O)N2CCN(C(=O)c3cccn3C)CC2)c1 | 10.1%
O=C(O)CCN1C(=O)C2C3C=CC(C2C1=O)C1C(=O)N(CCC(=O)O)C(=O)C31 (centres unmarked) | 5.87%
Cc1ccc2nc(-c3ccccc3)c(CC(=O)O)c(C(=O)O)c2c1 | 14.3%
CC(=O)C1=C(O)C(=O)N(c2ccc(Br)cc2)C1c1ccc([N+](=O)[O-])cc1 (centres unmarked) | 4.17%
COc1ccc(C(=O)n2nc(-c3ccc(OC)cc3)nc2N)cc1 | 5.08%
CN(C)c1ccc(/C(=N\O)c2ccccc2)cc1 | 3.86%
CNc1nn(-c2cccc(Cl)c2)nc1N | 9.22%
CC(=O)c1c(C)[nH]c(C(=O)NCc2ccc(C)cc2)c1C | 15.2%
CCn1c(SCc2nc3ccccc3c(=O)[nH]2)nc2ccccc2c1=O | 15.9%
COc1ccccc1NS(=O)(=O)c1cccc(NC(=O)CCNC(=O)c2ccccc2OC)c1 | -6.17%
CCOc1ccc(NC(=O)NCCN2CCN(c3ccccc3F)CC2)cc1 | -22.7%
COc1cccc(N=Cc2c(O)n(Cc3ccco3)c(=O)[nH]c2=O)c1 | 18.4%
C=CCC1(Cl)C(=O)C(Cl)=C(N2CCOCC2)C1(OC)OC (centres unmarked) | 13.6%
CC1=CC(C)(C)Nc2ccc(OC(=O)CN3C(=O)CCC3=O)cc21 | 7.7%
CCOc1ccc(Br)cc1CN(CC)CC.Cl | 8.54%
COC(=O)c1ccc(CN2CCC(Oc3ccc(C(=O)N4CCCCC4)cc3)CC2)cc1 | -11.3%
Cn1c(SCC(=O)Nc2ncc(C(F)(F)F)cc2Cl)nnc1-c1ccc(Cl)cc1 | -9.54%

SMILES | hERG current change (%, negative = inhibition) at 1uM
Cc1ccc(NC(=O)Cn2c([N+](=O)[O-])cnc2C)cc1Cl | 13%
CCS(=O)(=O)N1CCCC(C(=O)Oc2ccc(Br)cc2)C1 (centres unmarked) | 5.62%
CC(C)(C)c1ccc(NC(=O)c2ccc3c(c2)S(=O)(=O)c2ccccc2C3=O)cc1 | 18.7%
C/C(CC(=O)Nc1ccc(Cl)cn1)=N\NC(=O)Cc1cccs1 | 6.89%
COc1ccc(C2=NO[C@@H]3C(=O)N(C4CCCCC4)C(=O)[C@H]23)cc1OC | -6.55%
CCOC(=O)CNc1ncc(C(F)(F)F)cc1Cl | 14.7%
COc1ccccc1NC(=S)NCCSc1ccc(Cl)cc1 | 7.58%
COc1cc(C)cc(C(=O)O)c1C1=C(O)c2cccc(O)c2C(=O)C1=O | 4.88%
COC(=O)c1cc(CNC(=O)C(C)NS(=O)(=O)c2ccc(C)c(C)c2)ccc1OC (centres unmarked) | 13.8%
CCCN(CCC)CC(O)CN1C(=O)NC(C)(C)C1=O (centres unmarked) | 10.2%
COc1ccc(C)cc1N(CC(=O)N1CCCCCC1)S(=O)(=O)c1ccccc1 | 3.68%
CC1=CC(C)C2C(=O)N(O)C(=O)C2C1 (centres unmarked) | 12%
Cc1ccc(C(=O)N2CCN(C(=O)C3CCCO3)CC2)cc1 (centres unmarked) | 2.84%
COc1ccc(S(=O)(=O)N2CCCC(C(=O)NCc3ccncc3)C2)cc1Cl (centres unmarked) | -0.994%
O=C(CN1CCCc2ccccc21)NCCc1ccc(F)cc1 | 5.82%
CC(=O)NCCC(=O)N1CCc2c([nH]c3ccccc23)C1c1cccc(Cl)c1 (centres unmarked) | 9.24%
CSCCC(NC(=O)c1ccccc1)C(=O)NCCc1ccccc1 (centres unmarked) | 4.72%
CCOCCCNC(=O)c1ccc2c(c1)ncn2-c1ccc(CC)cc1 | -5.28%
O=C(COC(=O)C1(c2ccccc2F)CCCC1)N1CCOCC1 | 15.1%
CN(CCOc1ccc(Br)cc1)C(=O)CNC(=O)c1ccc2ccccc2c1 | 10.2%
CCOc1ccc(/C=N/Nc2ccc(Cl)nn2)c(O)c1 | 15.3%
COCCNC(=O)c1nn(-c2cc(OC)cc(OC)c2)c(=O)c2ccccc12 | 14.4%
COc1cc2nc(CN(C)Cc3ccc(Cl)cc3)[nH]c(=O)c2cc1OC | 9.46%

SMILES | hERG current change (%, negative = inhibition) at 1uM
O=C(NCc1nnc(SCC(=O)N2CCC(Cc3ccccc3)CC2)o1)c1ccccc1F | 10.1%
CC(C)C(Sc1nc(-c2ccccc2)cc(-c2ccccc2)c1C#N)C(=O)O (centres unmarked) | 9.23%
O=C1CC(c2cccc(F)c2)C2=C(CCCC2=O)N1 (centres unmarked) | 6.26%
Cc1cccc(C)c1NC(=O)CN1C(=O)N(C)Cc2ccccc21 | 15.8%
NC(=O)c1sc2nc3c(c(-c4ccccc4)c2c1N)CCC3 | -3.97%
Cc1ccc(N2CCCCn3c2nc2c3c(=O)n(CC(=O)O)c(=O)n2C)cc1 | 7.61%
Cc1ccc(S(=O)(=O)NCCC(=O)OCC(=O)N(Cc2ccccc2)C(C)(C)C)cc1 | 16.9%
CN(C)c1nc(C#N)nc(N(C)C)n1 | 7.77%
COc1cccc(C2(O)CCN(C(=O)C3CC3)CC2)c1 | 12.7%
COc1cccc(N2CC(C(=O)Nc3nnc(SCC(=O)N4CCCC4)s3)CC2=O)c1 (centres unmarked) | 6.03%
O=C(C1=C(O)C(=O)N(CC2CCCO2)C1c1ccc(Cl)cc1)c1ccco1 (centres unmarked) | 13.5%
CC(C)(C)OC(=O)N1CCOCCOCCN(C(=O)OC(C)(C)C)CCOCCOCC1 | 9.77%
COc1ccc(/C=N/NC(=O)c2ccccc2)cc1OS(=O)(=O)c1ccccc1 | 6.08%
CC(C)Sc1snnc1-c1ccccc1 | 10.7%
COc1ccc(C)cc1N(C(=O)CNC(=O)c1ccco1)C(C(=O)NC1CCCC1)c1cccnc1 (centres unmarked) | 20.4%
N#Cc1cccc(C(c2nnnn2CCc2ccccc2)N2CCN(C3CCCCC3)CC2)c1 (centres unmarked) | -18.3%
O=[N+]([O-])c1ccc(COc2ncnc3ccccc23)cc1 | -19.5%
O=C(Nc1ccc(C(=O)N2CCOCC2)cc1)c1cccc(Br)c1 | 9.44%
CC1CC(=O)Nc2ccccc2N1C(=O)CSc1nnnn1C(C)C (centres unmarked) | 16.7%
COc1ccc(C(=S)N(C)C)cc1OC | 4.46%
